Experimental data from the supplement of paper PMC4967469.

How the values were obtained:
Experiment in all cases: Viability of human cancer cell lines after 72 h of drug (GDSC screen)
Thapsigargin = compound: C/C=C(/C)C(=O)O[C@H]1C(C)=C2[C@H]([C@@H]1OC(=O)CCCCCCC)[C@@](C)(OC(C)=O)C[C@H](OC(=O)CCC)[C@@]1(O)[C@H]2OC(=O)[C@@]1(C)O [Thapsigargin]; conditions: top dose 0.512 µM; top dose inferred
Method: (§1)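 Human cancer cell lines in 384-well plates, medium with 10% serum, drug for 72 h over a 256-fold dose range (nine 2-fold or five 4-fold steps up to the top dose). Adherent lines were fixed and stained with the nucleic acid dye Syto60, suspension lines read with resazurin; signal relative to control wells, capped at 0 and 100%. One two-parameter sigmoid per drug and line, fitted in a mixed model over all curves with the slope shared within a line.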

ABT-869 = compound: Cc1ccc(F)c(NC(=O)Nc2ccc(-c3cccc4[nH]nc(N)c34)cc2)c1 [ABT-869]; conditions: top dose 1.024 µM; top dose inferred
Method: as §1

QL-X-138 = compound: C=CC(=O)Nc1cc(-n2c(=O)ccc3cnc4ccc(-c5cn[nH]c5)cc4c32)ccc1C [QL-X-138]; conditions: top dose 10.24 µM; top dose inferred
Method: as §1

KU-55933 = compound: O=c1cc(-c2cccc3c2Sc2ccccc2S3)oc(N2CCOCC2)c1 [KU-55933]; conditions: top dose 10 µM
Method: as §1

CHIR-99021 = compound: Cc1cnc(-c2cnc(NCCNc3ccc(C#N)cn3)nc2-c2ccc(Cl)cc2Cl)[nH]1 [CHIR-99021]
Method: as §1

Zibotentan = compound: COc1nc(C)cnc1NS(=O)(=O)c1cccnc1-c1ccc(-c2nnco2)cc1 [Zibotentan]; conditions: top dose 20 µM; top dose inferred
Method: as §1

ABT-888 = compound: C[C@]1(c2nc3c(C(N)=O)cccc3[nH]2)CCCN1 [ABT-888]; conditions: top dose 5 µM; top dose inferred
Method: as §1

GSK269962A = compound: CCn1c(-c2nonc2N)nc2cnc(Oc3cccc(NC(=O)c4ccc(OCCN5CCOCC5)cc4)c3)cc21 [GSK269962A]; conditions: top dose 5 µM; screen: GDSC drug entry 1192; top dose inferred
Method: as §1

CP466722 = compound: COc1cc2ncnc(-n3nc(-c4ccccn4)nc3N)c2cc1OC [CP466722]; conditions: top dose 16 µM; top dose inferred
Method: as §1

Cytarabine = compound: Nc1ccn([C@@H]2O[C@H](CO)[C@@H](O)[C@@H]2O)c(=O)n1 [Cytarabine]; conditions: top dose 2 µM
Method: as §1

MPS-1-IN-1 = compound: COc1cc(N2CCC(O)CC2)ccc1Nc1cc(Nc2ccccc2S(=O)(=O)C(C)C)c2cc[nH]c2n1 [MPS-1-IN-1]; conditions: top dose 20 µM; top dose inferred
Method: as §1

(5Z)-7-Oxozeaenol = compound: COc1cc(O)c2c(c1)/C=C/C[C@H](O)[C@H](O)C(=O)/C=C\C[C@H](C)OC2=O [(5Z)-7-Oxozeaenol]; conditions: top dose 10 µM; top dose inferred
Method: as §1

[1] = top dose 2.56 µM, screen: GDSC drug entry 154
[2] = top dose 10 µM, screen: GDSC drug entry 1241, top dose inferred

Cell Line | AUC (Thapsigargin) | IC50 (Thapsigargin) | AUC (ABT-869) | IC50 (ABT-869) | AUC (QL-X-138) | IC50 (QL-X-138) | AUC (KU-55933) | IC50 (KU-55933) | AUC (CHIR-99021; [1]) | IC50 (CHIR-99021; [1]) | AUC (Zibotentan) | IC50 (Zibotentan) | AUC (ABT-888) | IC50 (ABT-888) | AUC (GSK269962A) | IC50 (GSK269962A) | AUC (CP466722) | IC50 (CP466722) | AUC (Cytarabine) | IC50 (Cytarabine) | AUC (MPS-1-IN-1) | IC50 (MPS-1-IN-1) | AUC (CHIR-99021; [2]) | IC50 (CHIR-99021; [2]) | AUC ((5Z)-7-Oxozeaenol) | IC50 ((5Z)-7-Oxozeaenol)
AGS (stomach, adherent) | 0.336 | 0.0118 µM | 0.989 | > 1.02 µM | 0.919 | > 10.2 µM | 0.95 | > 10 µM | 0.99 | > 2.56 µM | 0.99 | > 20 µM | 0.99 | > 5 µM | 0.721 | 1.23 µM | 0.986 | > 16 µM | 0.803 | 0.873 µM | 0.929 | > 20 µM | – | – | – | –
CAPAN-1 (pancreas, adherent) | 0.241 | 0.00516 µM | 0.986 | > 1.02 µM | 0.828 | 7.28 µM | 0.975 | > 10 µM | 0.984 | > 2.56 µM | 0.983 | > 20 µM | 0.979 | > 5 µM | 0.985 | > 5 µM | 0.866 | > 16 µM | 0.692 | 0.46 µM | 0.939 | > 20 µM | – | – | – | –
FADU (head and neck, adherent) | 0.41 | 0.0183 µM | 0.987 | > 1.02 µM | 0.907 | > 10.2 µM | 0.984 | > 10 µM | 0.988 | > 2.56 µM | 0.987 | > 20 µM | 0.988 | > 5 µM | 0.939 | > 5 µM | 0.918 | > 16 µM | 0.755 | 0.657 µM | 0.971 | > 20 µM | – | – | – | –
HCC202 (breast, adherent) | 0.463 | 0.0244 µM | – | – | – | – | 0.979 | > 10 µM | – | – | 0.962 | > 20 µM | 0.976 | > 5 µM | 0.918 | > 5 µM | 0.707 | 4.91 µM | 0.866 | > 2 µM | 0.981 | > 20 µM | 0.975 | > 10 µM | 0.864 | > 10 µM
HuP-T4 (pancreas, adherent) | 0.266 | 0.00656 µM | 0.952 | > 1.02 µM | 0.698 | 2.4 µM | 0.957 | > 10 µM | 0.984 | > 2.56 µM | 0.979 | > 20 µM | 0.984 | > 5 µM | 0.756 | 1.81 µM | 0.691 | 3.55 µM | 0.607 | 0.25 µM | 0.84 | 15 µM | – | – | – | –
IGR-1 (melanoma, adherent) | 0.332 | 0.0116 µM | 0.99 | > 1.02 µM | 0.913 | > 10.2 µM | 0.976 | > 10 µM | 0.91 | > 2.56 µM | 0.98 | > 20 µM | 0.99 | > 5 µM | 0.979 | > 5 µM | 0.856 | 10.5 µM | 0.943 | > 2 µM | 0.836 | 11 µM | – | – | – | –
JHU-029 (head and neck, adherent) | 0.36 | 0.0119 µM | – | – | – | – | 0.979 | > 10 µM | 0.98 | > 2.56 µM | – | – | 0.961 | > 5 µM | 0.936 | > 5 µM | – | – | 0.605 | 0.26 µM | – | – | 0.977 | > 10 µM | 0.571 | 1.02 µM
KP-1N (pancreas, adherent) | 0.124 | < 0.002 µM | – | – | – | – | 0.973 | > 10 µM | 0.983 | > 2.56 µM | – | – | 0.982 | > 5 µM | 0.918 | > 5 µM | 0.557 | 1.44 µM | 0.786 | 0.912 µM | – | – | 0.958 | > 10 µM | 0.746 | 3.31 µM
KYSE-410 (oesophagus, adherent) | 0.112 | < 0.002 µM | 0.979 | > 1.02 µM | 0.769 | 4.11 µM | 0.965 | > 10 µM | 0.973 | > 2.56 µM | 0.985 | > 20 µM | 0.967 | > 5 µM | 0.694 | 1.14 µM | 0.889 | > 16 µM | 0.734 | 0.611 µM | 0.92 | > 20 µM | – | – | – | –
MKN28 (stomach, adherent) | 0.223 | 0.00488 µM | 0.983 | > 1.02 µM | 0.871 | 9.99 µM | 0.962 | > 10 µM | 0.924 | > 2.56 µM | 0.982 | > 20 µM | 0.987 | > 5 µM | 0.974 | > 5 µM | 0.951 | > 16 µM | 0.823 | 1.22 µM | 0.929 | > 20 µM | – | – | – | –
NCI-H727 (lung carcinoid, adherent) | 0.313 | 0.00675 µM | 0.965 | > 1.02 µM | 0.847 | > 10.2 µM | 0.947 | > 10 µM | – | – | – | – | 0.97 | > 5 µM | 0.944 | > 5 µM | 0.908 | > 16 µM | 0.955 | > 2 µM | 0.924 | > 20 µM | – | – | 0.806 | > 10 µM
NCI-H3122 (lung adenocarcinoma, adherent) | 0.218 | 0.00464 µM | 0.983 | > 1.02 µM | 0.769 | 3.96 µM | 0.966 | > 10 µM | 0.974 | > 2.56 µM | 0.982 | > 20 µM | 0.987 | > 5 µM | – | – | 0.837 | 11.1 µM | 0.691 | 0.437 µM | 0.507 | 1.3 µM | – | – | – | –

By IC50 is meant the dose at which the fit gives 50% viability; a limit (>, <) means that the fit lies beyond the doses tested. AUC sums up the same curve from the lowest dose to the 256-fold higher top dose; it is 1 without any effect and falls as sensitivity rises. For some assays here: A top dose marked as inferred comes from the curve model; the source does not state it. For some assays here: An entry number marks a drug with two screens in the source, which often give different values.
